# The whole screen tested about 45,000 compounds, of which about 65 (0.1%) were called active. Calls follow the shape of the dose curve; as a rule, active = well fitted activation curve with a large enough effect; inconclusive = small, poorly fitted or top-dose-only effect; inactive = no such curve, though single readings can be large or run the other way. The list shows a part of the results.
# Biological target: Galactocerebrosidase (Homo sapiens) (UniProt P54803)
# Test: A Novel Cell-Based Assay to Identify Small Molecules for B -Galactocerebrosidase; also: 0% is about no effect; nearly all actives have a fitted effect of over 65% in size
# Details: 145M-Twi-hGALC-G270D cells (Twitcher mouse brain line with human GALC G270D), HMU-beta-Gal fluorescence, 48 h; series mostly up to 57.5 µM; activation: at the top concentration
# In short: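 Fluorescence readout: HMU-β-gal cleavage by mutant GALC (0.1 mM final, citrate/phosphate pH 5.2 with 1 mg/mL taurocholate), stopped with carbonate/bicarbonate plus Triton X-100. Cells: murine Twitcher 145M-Twi expressing human G270D GALC; qHTS for activators.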
# UniProt P54803, sequence (P54803 whole entry, looked up): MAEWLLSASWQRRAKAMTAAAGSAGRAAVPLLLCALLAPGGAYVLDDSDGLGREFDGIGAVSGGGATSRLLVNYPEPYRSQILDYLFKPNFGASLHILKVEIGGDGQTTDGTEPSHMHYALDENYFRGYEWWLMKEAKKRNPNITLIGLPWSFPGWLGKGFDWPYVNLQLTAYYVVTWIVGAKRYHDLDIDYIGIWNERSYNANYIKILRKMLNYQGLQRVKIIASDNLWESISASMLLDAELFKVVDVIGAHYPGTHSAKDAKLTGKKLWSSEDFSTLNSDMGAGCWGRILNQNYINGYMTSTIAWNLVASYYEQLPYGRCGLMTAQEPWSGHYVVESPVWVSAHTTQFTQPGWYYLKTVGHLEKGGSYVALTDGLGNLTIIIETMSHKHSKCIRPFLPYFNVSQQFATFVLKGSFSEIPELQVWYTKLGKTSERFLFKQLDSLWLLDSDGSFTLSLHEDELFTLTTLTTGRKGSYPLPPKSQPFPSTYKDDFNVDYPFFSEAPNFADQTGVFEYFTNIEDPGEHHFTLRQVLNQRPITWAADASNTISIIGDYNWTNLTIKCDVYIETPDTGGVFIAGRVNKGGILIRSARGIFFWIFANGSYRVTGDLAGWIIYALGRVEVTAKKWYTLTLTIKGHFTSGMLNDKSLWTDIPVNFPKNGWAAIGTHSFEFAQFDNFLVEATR
row,Structure (SMILES),activation
1,CS(=O)(=O)c1oc(-c2ccc(F)cc2)nc1S(=O)(=O)c1ccc(Cl)cc1,inactive: -10.5%
2,O=C(CSc1cn(CCNC(=O)c2ccccc2F)c2ccccc12)Nc1ccccc1F,inactive: 13.5%
3,COc1ccccc1OC(=O)Oc1ccccc1OC,inactive: -12.9%
4,Cc1c(NC(=O)CC(C)C)cccc1-c1nc2cccnc2s1,inactive: 5.23%
5,COc1cccc(-n2c(SCC(=O)Nc3cccc(Cl)c3)nc3c(oc4ccccc43)c2=O)c1,inactive: 4%
6,COc1ccc(/C=C\C(=O)NC2CC(=O)N(c3ccc(F)cc3)C2)cc1OC (stereo not given),inactive: -4.87%
7,CCc1ccc(NCc2cc3ccc(OC)cc3n(CC(=O)Nc3ccc(C(C)C)cc3)c2=O)cc1,inactive: -8.01%
8,Cc1ccc(Nc2c(-c3ccsc3)nc3cccc(C)n23)cc1,inactive: -6.89%
9,COc1ccc(Cl)cc1NC(=O)CSC1=Nc2ccccc2C2=NC(CC(=O)NC3CCCCC3)C(=O)N12 (stereo not given),inactive: -18.9%
10,CC(=O)Nc1ccc(C(=O)O)cc1,inactive: -10.4%
11,CCOC(=O)CNC(=O)c1ccc(-c2nn(C)c(=O)c3ccccc23)cc1,inactive: -4.43%
12,Cc1ccc(NC(=O)Cn2nnc(-c3nc(-c4ccncc4)no3)c2N)c(C)c1,inactive: -7.47%
13,COc1ccccc1NC(=O)C1=C(C)Nc2nc(SCc3ccc(Cl)cc3)nn2C1c1ccccc1Cl (stereo not given),inactive: -6.22%
14,CC(NC(=O)C1CCN(C(=O)c2ccc(-n3ccc4ccccc43)s2)CC1)c1ccccc1 (stereo not given),inactive: -12.2%
15,Cc1ccc(NC(=O)c2ccc3oc(=O)c(S(=O)(=O)c4ccccc4)cc3c2)cc1C,inactive: -27.4%
16,COc1cc(C2NC(=O)N(C)C3=C2C(=O)N(c2cccc(Cl)c2)C3)ccc1O (stereo not given),inactive: -13.2%
17,CCOC(=O)c1c(NC(C)=O)c2c3c(sc2n1Cc1ccc(Cl)cc1)CCCC3,inactive: -7.63%
18,CCOc1ccc(OC(=O)c2cn(-c3cccc(OC)c3)c(=O)c3ccccc23)cc1,inactive: -2.38%
19,CCOC(=O)C1CCN(C(=O)CN2c3ccc(C(C)C)cc3-c3ccccc3S2(=O)=O)CC1,inactive: -4.02%
20,CC1CCN(C(=O)c2cc3c(=O)n(C)c4ccccc4c3s2)CC1,inactive: -7.16%
21,CC1CCCCN1CCCNC(=O)c1[nH]c2ccccc2c1Sc1ccc(Cl)cc1 (stereo not given),inactive: -4.57%
22,COc1ccccc1CNC(=O)CCC1N=C2c3ccccc3N=C(SCC(N)=O)N2C1=O (stereo not given),inactive: -24.6%
23,Cc1cccc(CNC(=O)C(=O)Nc2ccccc2C)c1,inactive: -0.988%
24,Fc1ccccc1-n1ncc2c1ncn1nc(-c3ccccc3Cl)nc21,inactive: -7.23%

row,Structure (SMILES),activation
1,Cc1ccc(CNC(=O)c2ccc(CSCc3ccccc3Cl)o2)cc1,inactive: -7.95%
2,CC(=O)c1cccc(NC(=O)C2=CC(c3ccc4c(c3)OCO4)=NS(=O)(=O)N2C)c1,inactive: -8.96%
3,Cc1ccc(NC(=O)c2c(NC(=O)Cc3ccccc3)sc3c2CCC3)cc1,inactive: -9.74%
4,CCN1C(=O)c2ccccc2Sc2ccc(NC(=O)Nc3ccccc3OC)cc21,inactive: -10%
5,Cc1cccc(C)c1NC(=O)CSc1nc2ncccc2o1,inactive: -8.05%
6,Cc1ccc(S(=O)(=O)NCC(c2ccc(N(C)C)cc2)N2CCc3ccccc32)cc1C (stereo not given),inactive: -4.35%
7,CCc1ccc(CNC(=O)C2CCN(c3nc4ccccc4nc3C(F)(F)F)CC2)cc1,inactive: -13.6%
8,CC(=O)N1CCc2cc(CNC(=O)Nc3cc(Cl)ccc3C)ccc21,inactive: -5.74%
9,COc1ccc(Cn2c(CCC(=O)Nc3cccc(OC)c3)nc3cccnc32)cc1,inactive: -8.56%
10,COc1ccc(NC(=O)Cn2c(=O)n(Cc3ccco3)c(=O)c3cc(OC)c(OC)cc32)cc1,inactive: -3.14%
11,CN(C)c1ccc(-c2nc3cnccn3c2Nc2cccc(C(F)(F)F)c2)cc1,inactive: 2.48%
12,COc1cccc(CNc2nccn(-c3cc(C)cc(C)c3)c2=O)c1,inactive: -8.85%
13,COCCn1c(CCC(=O)Nc2ccc(C)c(Cl)c2)nc2cccnc21,inactive: -14.7%
14,CCSc1ncc(Cl)c(C(=O)Nc2ccc(S(=O)(=O)N3CCC(C)CC3)cc2)n1,inactive: -23.7%
15,Cc1c(Cl)cccc1NC(=O)Cn1cc(C(=O)C2CCCCC2)c2ccccc21,inactive: -17.2%
16,Clc1ccc2nc(NCc3ccccc3)c3nncn3c2c1,inactive: -6.41%
17,Cc1cc2c(cc1S(=O)(=O)CCC(=O)N1CCCC(C)C1)OCC(=O)N2 (stereo not given),inactive: -0.814%
18,Cc1ccc(NC(=O)CSC2=Nc3ccccc3C3=NC(Cc4ccccc4)C(=O)N23)cc1C (stereo not given),inactive: -43.5%
19,CCCCN(CCCNC(=O)c1ccc(Sc2ccc(Cl)cc2)c(NC(C)=O)c1)c1ccccc1,inactive: -13.5%
20,Cc1ccc(-n2ncc(C(=O)NCCN3CCOCC3)c2C2CCN(C(=O)OC(C)(C)C)CC2)c(C)c1,inactive: -19%
21,CCc1ccc(NC(=O)CN2CCSc3ccc(S(=O)(=O)N4CCCC4)cc32)cc1,inactive: -30%
22,COC(=O)c1cnn(-c2ccc(C(=O)Nc3ccc(OC(F)(F)F)cc3)cc2)c1N,inactive: -9.01%
23,COc1ccc(/C=C/C(=O)c2ccc(OC)cc2OC)cc1,inactive: -12.8%
24,COc1ccc(C(CNC(=O)c2cccc([N+](=O)[O-])c2)N2CCOCC2)cc1 (stereo not given),inactive: -6.25%

row,Structure (SMILES),activation
1,COc1ccc(CCNc2nc(-c3ccc(F)cc3)cc(C(F)(F)F)n2)cc1OC,inactive: -0.163%
2,Cc1ccc(Cc2cnc(NC(=O)C3Cc4ccc(C)cc4C(=O)O3)s2)cc1 (stereo not given),inactive: -9.26%
3,Cc1ccc(CNC(=O)Cn2c(=O)ccc3cc(S(=O)(=O)N4CCCC4)ccc32)cc1,inactive: -16.4%
4,CC(NC(=O)c1c2c(nc3ccccc13)C(=O)N(C1CCCCC1)C2)c1ccccc1 (stereo not given),inactive: -14.3%
5,CCOc1ccc(S(=O)(=O)c2cn(C)c3ccccc3c2=O)cc1,inactive: 22.5%
6,CC(C(=O)O)c1ccc(C(=O)c2cccs2)cc1 (stereo not given),inactive: -14%
7,CN(C)c1ccc(NC(=O)CN2C(=O)c3ccccc3Sc3ccc(C(=O)N4CCCC4)cc32)cc1,inactive: -15.7%
8,CCOC(=O)C1CCN(C(=O)Cn2ncc3c4ccccc4n(Cc4ccccc4F)c3c2=O)CC1,inactive: -4.1%
9,CCN(C(=O)c1cccn(Cc2ccccc2C)c1=O)c1ccccc1,inactive: -3.57%
10,Cc1ccc(NC(=O)CN2C(=O)CCn3nc(-c4cccn4C)cc32)c(Cl)c1,inactive: -4.04%
11,O=c1n(Cc2ccc(F)cc2)nc2n1-c1cc(Cl)ccc1OC2,inactive: -8.23%
12,Cc1ccc(F)cc1NC(=O)c1ccc(Cn2nc(N3CCN(c4ccccc4)CC3)ccc2=O)o1,inactive: -9.38%
13,Cc1nn(CCCC(=O)NCc2cccc(Cl)c2)c(=O)c2c1sc1ccccc12,inactive: -15.1%
14,Cc1nnc(NC(=O)CSc2nnc3c(n2)[nH]c2ccccc23)s1,inactive: -11%
15,O=C(Cn1c(-c2cccs2)cc2cc(F)ccc21)NCCCN1CCN(c2ccccc2F)CC1,inactive: -8.19%
16,Cc1cccc(N2CCN(CCCNC(=O)c3sc4ncccc4c3-n3cccc3)CC2C)c1 (stereo not given),inactive: -26.4%
17,Cc1oc(-c2ccc(C(=O)NCCc3ccc(Cl)cc3)cc2)nc1CSc1ccccc1,inactive: -16.7%
18,COc1ccc(-n2nc(C(=O)NCCc3ccc(OC)c(OC)c3)c3c4ccccc4n(C)c3c2=O)cc1Cl,inactive: -5.34%
19,COc1ccc(-c2cn3nc(N4CCC(C(=O)Nc5ccc(Cl)cc5C)CC4)sc3n2)cc1,inactive: 4.44%
20,O=C(Cn1cc(SCc2ccccc2)c2ccccc21)N1CCCCCC1,inactive: -5.96%
21,CCOc1ccccc1CNC(=O)c1cnc2c(-c3ccc(OCC)c(OCC)c3)c(C)nn2c1C,inactive: -7.97%
22,COc1ccc(NC(=O)C2CCN(c3nc4ccccc4nc3C(F)(F)F)CC2)cc1,inactive: -13.4%
23,O=C(NCc1ccccc1)c1ccc2c(c1)N(Cc1cccc(Cl)c1)C(=O)c1ccccc1S2(=O)=O,inactive: -10.3%
24,Cc1ccc(S(=O)(=O)n2nc(C)c(S(=O)(=O)N3CCC(C)CC3)c2C)cc1,inactive: -2.25%

row,Structure (SMILES),activation
1,CCn1ccc2cc(S(=O)(=O)N3CCC(C(=O)NCc4ccc(OC)cc4)CC3)ccc21,inactive: -16.5%
2,CCOC(=O)C1CCC(CN(Cc2c(Cl)cccc2Cl)S(=O)(=O)c2ccc(Cl)cc2)CC1 (stereo not given),inactive: -15.3%
3,Cc1ccccc1CN1C(=O)c2ccccc2Sc2ccc(C(=O)OCc3ccco3)cc21,inactive: -17.6%
4,Cc1ccc2nc(-c3ccc(Cl)c(NC(=O)c4cccc([N+](=O)[O-])c4C)c3)oc2c1,inactive: -1.28%
5,Cc1ccc(-c2nc(SCC(=O)N3CCc4ccccc43)c3c(=O)n(C)c(=O)n(C)c3n2)cc1,inactive: -3.56%
6,Cc1ccc(N2CCN(c3c(CN4CCCC4)c(=O)oc4ccccc34)CC2)c(C)c1,inactive: -14.8%
7,COc1ccc(Cn2c(SCC(=O)Nc3ccc(OC)cc3)nc3ccccc32)cc1,inactive: 7.7%
8,O=C(COCc1cc(-c2ccco2)on1)Nc1cccc(O)c1,inactive: -2.71%
9,COc1cc2ncnc(Nc3ccc(F)c(Cl)c3)c2cc1OCCCN1CCOCC1,inactive: -12.2%
10,COc1cc(/C=C/c2nc3cc(Cl)ccc3c(=O)n2-c2cccc(C(F)(F)F)c2)cc(OC)c1OC,inactive: -3.27%
11,COc1cc(NC(=O)Nc2nnc(N3CCCCCC3)s2)cc(OC)c1,inactive: -4.48%
12,CC1CCCN(Cc2c(O)ccc3c(=O)c(Oc4ccc(C(C)(C)C)cc4)c(C(F)(F)F)oc23)C1 (stereo not given),inactive: -6.1%
13,Cn1c(=O)c(=O)n(C)c2cc(S(=O)(=O)CCC(=O)Nc3cccc(C(F)(F)F)c3)ccc21,inactive: -6.63%
14,COc1cc(OC)c(N(C)C(=O)C2CCCN(c3ncnc4c3nc3n4CCCCC3)C2)cc1Cl (stereo not given),inactive: -13.3%
15,CN(C)S(=O)(=O)c1ccc2c(c1)N(CC(=O)N1CCN(c3cccc(Cl)c3)CC1)CCS2,inactive: -25.1%
16,Cc1ccc(-c2nc3c(cnn3-c3ccccc3)c(=O)n2-c2cccc(Cl)c2)cc1,inactive: -10.4%
17,CCOc1ccc(NC(=O)[C@H]2O[C@@H]3OC(C)(C)O[C@@H]3[C@H]3OC(C)(C)O[C@H]32)cc1,inactive: -18.9%
18,Cc1cccc(NC(=O)CSc2nc(=O)n(Cc3ccco3)c3c2CCC3)c1C,inactive: -7.22%
19,CN1CCC[C@@H]1CCO[C@](C)(c1ccccc1)c1ccc(Cl)cc1,inactive: -12.3%
20,CCOc1ccccc1CNC(=O)c1cn(-c2ccc(OC)cc2)c(=O)c2ccccc12,inactive: 1.93%
21,COc1cccc(CNC(=O)CSc2n[nH]c(-c3ccccc3Cl)n2)c1OC,inactive: -9.51%
22,COc1cccc(C2=C(C(C)=O)Sc3nnc(C4CCCCC4)n3N2C(C)=O)c1,inactive: -11.3%
23,CCOc1ccc(CN(C(=O)c2nc(SC)ncc2Cl)C2CCS(=O)(=O)C2)cc1 (stereo not given),inactive: -18.7%

# Source: PubChem BioAssay AID1159614 (National Center for Advancing Translational Sciences (NCATS), 2016)
